Source: article PMC4336329 (PLoS ONE, 2015)
About 14,000 (4.5%) of roughly 310,000 compounds showed an effect of 50% or more. The effect is printed as a negative number. This is one part of the list.

target: human ether-à-go-go-related gene (hERG) potassium channel (human, UniProt Q12809); experiment: primary screen, population patch clamp on CHO cells stably expressing hERG
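Further: peak tail current of the secondary pulse compared with the same well before compound.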

Sequence of human ether-à-go-go-related gene (hERG) potassium channel (Q12809 whole entry, looked up): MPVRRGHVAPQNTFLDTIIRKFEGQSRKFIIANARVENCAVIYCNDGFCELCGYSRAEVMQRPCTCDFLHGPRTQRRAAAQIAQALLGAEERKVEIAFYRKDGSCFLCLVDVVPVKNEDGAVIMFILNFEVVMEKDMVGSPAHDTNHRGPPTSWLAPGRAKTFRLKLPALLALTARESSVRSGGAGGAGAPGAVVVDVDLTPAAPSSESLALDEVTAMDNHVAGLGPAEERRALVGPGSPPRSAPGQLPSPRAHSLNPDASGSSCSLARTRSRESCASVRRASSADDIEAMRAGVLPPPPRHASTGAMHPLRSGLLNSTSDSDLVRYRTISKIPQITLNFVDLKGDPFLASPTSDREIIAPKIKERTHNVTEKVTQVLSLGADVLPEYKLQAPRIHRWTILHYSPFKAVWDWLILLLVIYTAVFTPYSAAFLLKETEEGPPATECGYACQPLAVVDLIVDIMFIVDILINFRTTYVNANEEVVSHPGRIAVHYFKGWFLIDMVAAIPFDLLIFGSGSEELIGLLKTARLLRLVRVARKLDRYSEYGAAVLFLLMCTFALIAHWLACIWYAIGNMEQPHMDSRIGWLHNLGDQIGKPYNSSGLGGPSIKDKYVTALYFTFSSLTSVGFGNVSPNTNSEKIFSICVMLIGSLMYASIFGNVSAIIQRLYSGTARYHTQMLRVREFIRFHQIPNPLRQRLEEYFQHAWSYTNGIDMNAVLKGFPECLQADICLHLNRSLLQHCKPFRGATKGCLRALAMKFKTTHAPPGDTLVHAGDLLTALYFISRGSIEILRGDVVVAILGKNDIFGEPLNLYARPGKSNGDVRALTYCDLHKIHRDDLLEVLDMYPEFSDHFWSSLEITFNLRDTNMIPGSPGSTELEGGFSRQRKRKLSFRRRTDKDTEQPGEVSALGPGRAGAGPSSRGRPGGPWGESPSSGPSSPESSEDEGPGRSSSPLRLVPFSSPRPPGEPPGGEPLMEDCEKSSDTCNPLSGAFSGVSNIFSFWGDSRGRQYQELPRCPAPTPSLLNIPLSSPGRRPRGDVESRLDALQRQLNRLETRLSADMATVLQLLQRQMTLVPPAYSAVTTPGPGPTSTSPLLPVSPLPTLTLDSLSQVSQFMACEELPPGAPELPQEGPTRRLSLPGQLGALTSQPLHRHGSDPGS

SMILES | hERG current change (%, negative = inhibition) at 10uM [%]
Cc1nn(-c2ccc(Cl)c(Cl)c2)c(=O)c2ccccc12 | -0.0448
CC(=O)Nc1ccc(S(=O)(=O)NCC(=O)OCC(=O)NC(=O)C2CCCCC2)cc1 | 21.1
O=C(Nc1ccccc1Cl)c1ccc2nccnc2c1 | 0.448
COCCNC(=O)c1ccccc1NS(=O)(=O)c1ccc(Br)s1 | 0.678
CCOc1ccc(NS(=O)(=O)c2ccc(-c3cnc(C4CC4)o3)cc2)cc1 | 16.6
Cc1ccc(OCC(=O)N(Cc2nnc(-c3ccccc3Cl)o2)C2CC2)cc1C | -44.1
CCOc1ccc(S(=O)(=O)N2CCN(C(=O)c3ccc(-n4cncn4)c([N+](=O)[O-])c3)CC2)cc1 | -71.5
O=C(COC(=O)c1ccccn1)NCCCc1ccccc1 | 5.64
COc1ccc(C(c2nnnn2C2CCCC2)N2CCN(c3ccccc3)CC2)cc1 (centres unmarked) | -10.7
Cc1cc2c(C)cc(=O)[nH]c2cc1NC(=O)CCl | 14.3
O=C1CN(C(=O)c2cccc(F)c2)C(c2ccc(F)cc2)c2cc(F)ccc2N1 (centres unmarked) | -15.4
Cc1ccc(C2(c3noc(CN(C)CC4COCCO4)n3)CCCC2)cc1 (centres unmarked) | 7.16
O=C(CCC(=O)OCC(=O)c1ccc(-c2ccccc2)cc1)Nc1cccc2cccnc12 | 11
COc1ccc(-c2c(NC(C)=O)n(C)c3ccccc3c2=O)cc1 | 0.685
CCCCC(=O)Nc1ccc2c(c1)C(=O)NC2=O | 2.21
CN(C1CCCCC1)S(=O)(=O)c1cccc(C#N)c1 | 0.523
Cc1cc(NS(=O)(=O)c2ccc(NC(=O)C(C)Oc3cccc(C)c3C)cc2)nc(C)n1 (centres unmarked) | 9.74
CSc1ccccc1NC(=O)CN(C)CC(=O)Nc1cc(C)ccc1C | -2.06
CC(=O)OCCCN1C(=O)c2cccc3cc(Br)cc(c23)C1=O | 4.74

SMILES | hERG current change (%, negative = inhibition) at 10uM [%]
CC(=O)c1ccc(NC(=S)NC(=O)/C=C/c2ccco2)cc1 | 11.8
CC(C(=O)NC1CCCC1)N(Cc1ccc2c(c1)OCO2)C(=O)c1snc(C(N)=O)c1N (centres unmarked) | -14.6
CCN1CCN(C(=O)c2c(-c3c(Cl)cccc3Cl)noc2C)CC1 | 20.9
CCOC(=O)N1CCC(NC(=O)c2cnn3c2NC(c2ccco2)CC3C(F)(F)F)CC1 (centres unmarked) | -13.5
CCc1ccc(CC)c(S(=O)(=O)Nc2ccc(O)c(C(=O)O)c2)c1 | -7.87
CCOC(=O)C(NCCCO)c1ccccc1 (centres unmarked) | -1.98
CN(C(=O)c1ccccn1)c1nnc(-c2cccnc2)s1 | 7.9
O=C(NCC(=O)N(CCN1CCOCC1)C(C(=O)NC1CCCC1)c1cccs1)c1ccco1 (centres unmarked) | -0.929
c1csc(-c2nc3ccccn3c2NC2CCCCC2)c1 | 8.81
Cc1nn(C)c(C)c1/C=C/C(=O)O | 16.3
Cc1cc2nc3c(=O)n(Cc4ccccc4)c(=O)[nH]c3nc2cc1N | 6.76
C=CCNC(=O)/C(=C/c1ccco1)NC(=O)c1ccc(Br)o1 | -4.84
Cc1ccccc1Oc1ccccc1N | -9.92
CCCCCCC(=O)N/N=C/Cc1ccccc1 | -7.71
Cc1cc(Cl)c(S(=O)(=O)NCc2cccnc2)cc1OCC(=O)NC1CCCCC1 | -53.2
Nc1nonc1C(=Nc1ccc(Br)cc1)NO | 8.76
COc1ccc(C(=O)O)cc1NCc1ccc(C)s1 | 27
COc1cc(OC)c(C2NC(=O)CCC2[N+](=O)[O-])cc1OC (centres unmarked) | 9.82
O=C(Nc1ccccc1Cl)c1ccc2nc(N3CCOCC3)sc2c1 | 7.2

SMILES | hERG current change (%, negative = inhibition) at 10uM [%]
COc1ccc(/C(N)=N/OC(=O)CSc2ccccc2)cc1OC | -0.5
COc1ccc(/C=C/C(=O)Nc2sc(Cc3ccccc3)c(C)c2C(N)=O)cc1 | 2.59
O=C(NCc1nnnn1-c1ccc(F)cc1)c1ccc([N+](=O)[O-])o1 | -23.6
CC(=O)c1ccccc1C(=O)NCc1cccnc1 | 11.6
CCOC(=O)N1CCC(N2CCN(S(=O)(=O)c3ccc(OC)cc3)CC2)CC1.O=C(O)C(=O)O | -8.89
Cc1cc(Cl)ccc1C(=O)C1CCCN(C(=O)c2cnsn2)C1 (centres unmarked) | -9.68
COc1ccc(OC)c(NC(=O)c2ccc(CN(c3cc(Cl)ccc3C)S(=O)(=O)c3ccccc3)cc2)c1 | -10.1
CCOC(=O)N1CCN(C(=O)C2CCCN(S(=O)(=O)c3cc(C)ccc3OC)C2)CC1 (centres unmarked) | -5.57
COc1ccc(C(O)P(=O)(OCc2ccccc2)c2ccc(N(C)C)cc2)cc1 (centres unmarked) | 15.4
CCCOc1c(Br)cc(C2C3=C(CCCC3=O)N(C)C3=C2C(=O)CCC3)cc1OC | -24.5
CCOc1ccc(OCc2cccc(C(=O)N3CCCC3)c2)cc1 | -11.6
COC(c1ccc(Cl)cc1)(c1ccc(Cl)cc1)C(Oc1nccc(C)n1)C(=O)O (centres unmarked) | 19.1
Cc1cc[n+](CC2OCc3ccccc3CO2)cc1.[Br-] | 14.8
C/C(=N\NC(=S)NC1CCCCC1)c1cccs1 | -3.57
Clc1ccc(-c2nc3ncccn3c2Nc2ccc3c(c2)OCCO3)cc1 | 22.2
COc1ccc(CNC(=O)C(NC(C)=O)C(=O)Nc2ccc(C(C)C)cc2)cc1 (centres unmarked) | 19.5
O=C1CCc2cc(S(=O)(=O)N3CCN(c4ccccc4)CC3)cc3c2N1CCC3 | 1.52
Cc1cc(C)cc(NC(=O)CSc2nc3c(c(=O)[nH]2)CN(Cc2ccc(F)cc2)CC3)c1 | -11
